Measured values published in the supplement of paper PMC10126150.
Sequences with one replicate were seen in a single cluster, so their values are uncertain.

tested on: ATP; test: switch fluorescence ratio, 500 uM ATP over buffer (Cy3 cluster intensity, sum of 5 cycles each) (fold (ratio)); higher = stronger signal-on switching upon ATP binding; sequences stand for … in TCGTCGGCAGCGTCAGATGTGTATAAGAGACAGTTTTTTTTTTTTTTTTTTTTTTTTT…TC; settings: aptamer strand: ATP DNA aptamer (quencher-CACCTGGGGGAGTATTGCGGAGGAAGG + anchor), 100 nM annealed; ATP concentration: 500 uM; one replicate
How it was run: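 Per cluster, summed Cy3 intensity from the target cycles was divided by that from the buffer cycles to give the fluorescence ratio, then averaged per switch-domain sequence. Clusters outside 100-1000 RFU were excluded. The Cy3-labelled switching-strand clusters, on a modified Illumina MiSeq flow-cell, were annealed to 100 nM quencher-labelled ATP aptamer and imaged in selection buffer, then after 15 min with 500 uM ATP at 22 °C, for five cycles with NaOH stripping and re-annealing between them.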
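Also: ATP exposure 15 min at 22 °C before imaging.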

Sequence	switch fluorescence ratio
CAATTTCCTA	0.984
CAATTTCGGC	0.949
CACAAACCTT	2.22
CACAAAGATA	0.982
CACAAGCCAC	1.26
CACAAGCTCG	0.977
CACAATCGTT	0.999
CACACAGGTA	1.83
CACACGGAAT	1.38
CACACTAGGA	1.03
CACACTTATA	1.04
CACAGCCCGA	1.05
CACAGCTCCT	0.973
CACAGGCGGC	1.02
CACAGGGTTC	1.08
CACAGGTAGA	1.08
CACAGTTGAT	1.01
CACAGTTTCC	1.11
CACATACTGC	1.46
CACATAGGTA	1.01
CACATATTCT	0.966
CACATGCCAT	1.02
CACATGGTCA	0.969
CACATGTTTG	0.979
CACATTAAAA	0.989

Sequence	switch fluorescence ratio
CACATTGGCT	0.962
CACATTTAAT	1.06
CACATTTCAG	0.949
CACATTTGTA	0.956
CACCAAGCCT	1.14
CACCAATCTG	1.06
CACCACGATC	1.22
CACCAGCCCT	1.05
CACCAGTG	4.38
CACCATCCGA	1.25
CACCATGCTA	0.974
CACCCTATTG	1.07
CACCCTGTAA	1.03
CACCGACTGG	1.1
CACCGATCTT	1.01
CACCGCTGTT	1.53
CACCGTACTG	1.58
CACCTATTAG	1.04
CACCTCGGGA	1.02
CACCTGCTTT	1.01
CACCTGTCGC	1.13
CACGAAACG	1.14
CACGAAAGAA	1.01
CACGAATGAA	1.02
CACGACGGCC	1.08

Sequence	switch fluorescence ratio
CACGACTCAT	1.1
CACGAGTGAA	0.962
CACGCAAGTT	1.22
CACGCAGCTG	1.15
CACGCGCAAG	1.21
CACGCGGTTG	1.02
CACGCTACAA	1.3
CACGCTGGTC	1.18
CACGCTTGGT	1.04
CACGGAAGAG	1.04
CACGGAGAAT	1.02
CACGGAGACG	0.989
CACGGAGGGA	1.12
CACGGCAGTG	0.986
CACGGCATTT	1.16
CACGGCCAGC	1.11
CACGGGCAGT	1.07
CACGGGGAAA	1.23
CACGGGTAAG	1.03
CACGGTGGCG	0.962
CACGGTTCCA	1.07
CACGTATGAC	1.07
CACGTCTACC	1.38
CACGTGGTGA	1.04
CACGTTCCCT	1.11

Sequence	switch fluorescence ratio
CACGTTCCTA	1.05
CACGTTTAAA	1.01
CACTACATAG	1.08
CACTACGACA	1.25
CACTACGTCA	1.19
CACTCCAAGC	1.31
CACTCCTAGC	1.13
CACTCGCGC	1.37
CACTCGGTCT	1.04
CACTCTACC	1.32
CACTGCCATT	1.19
CACTGGCGGT	1
CACTGTAATT	1.22
CACTGTAGGA	1.17
CACTGTTGCG	0.983
CACTGTTTTT	1.01
CACTTAGATT	1.06
CACTTCAACA	1.08
CACTTCCGCG	1.57
CACTTCGGCG	1.08
CACTTCGGCT	0.972
CACTTCGTAT	1
CACTTCTTT	0.978
CACTTTATTC	1.06
CACTTTTAGT	0.99
